Assay results as given in paper PMC9911399, “Two distinct binding modes provide the RNA-binding protein RbFox with extraordinary sequence specificity”.
Numbering of substitutions follows the chain as printed; changes in the protein carry UniProt numbers. Some of the results follow.

T1: RBFOX1 RRM (Homo sapiens, UniProt Q9NWB1 109-208)
T1 sequence: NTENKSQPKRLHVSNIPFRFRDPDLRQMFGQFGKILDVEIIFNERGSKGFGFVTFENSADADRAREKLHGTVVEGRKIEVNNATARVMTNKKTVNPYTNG

B1: UGGAUGC (DNA:RNA)
RNA: GGGAGACCGGAAUUCAGAUUGUCCUGGAUGCUUAAAUCCCGUCGUAGCCACCA
DNA 1: CAATCTGAATTCCGGTCTCCC
DNA 2: TGGTGGCTACGACGGGATT
B2: CAUACAG (DNA:RNA)
RNA: B1 RNA with U25C, G26A, G27U, U29C, G30A, C31G
DNA 1: CAATCTGAATTCCGGTCTCCC
DNA 2: TGGTGGCTACGACGGGATT
B3: ACAAGUC (DNA:RNA)
RNA: B1 RNA with U25A, G26C, G27A, U29G, G30U
DNA 1: CAATCTGAATTCCGGTCTCCC
DNA 2: TGGTGGCTACGACGGGATT
B4: UGUCGAC (DNA:RNA)
RNA: B1 RNA with G27U, A28C, U29G, G30A
DNA 1: CAATCTGAATTCCGGTCTCCC
DNA 2: TGGTGGCTACGACGGGATT
B5: GUAGGUC (DNA:RNA)
RNA: B1 RNA with U25G, G26U, G27A, A28G, U29G, G30U
DNA 1: CAATCTGAATTCCGGTCTCCC
DNA 2: TGGTGGCTACGACGGGATT
B6: UAAGUUU (DNA:RNA)
RNA: B1 RNA with G26A, G27A, A28G, G30U, C31U
DNA 1: CAATCTGAATTCCGGTCTCCC
DNA 2: TGGTGGCTACGACGGGATT
B7: GCAGUAA (DNA:RNA)
RNA: B1 RNA with U25G, G26C, G27A, A28G, G30A, C31A
DNA 1: CAATCTGAATTCCGGTCTCCC
DNA 2: TGGTGGCTACGACGGGATT
B8: AACGGCU (DNA:RNA)
RNA: GGGAGACCGGAAUUCAGAUUGUCCAACGGCUUUAAAUCCCGUCGUAGCCACCA
DNA 1: CAATCTGAATTCCGGTCTCCC
DNA 2: TGGTGGCTACGACGGGATT
B9: UGGGCCG (DNA:RNA)
RNA: B1 RNA with A28G, U29C, G30C, C31G
DNA 1: CAATCTGAATTCCGGTCTCCC
DNA 2: TGGTGGCTACGACGGGATT

biological target: T1, RBFOX1 RRM; assay: EMSA; HiTS-Eq, 1 nM pool, 10 min; buffer printed only for the single-RNA assays: 10 mM Tris pH 7.5, 150 mM NaCl, 3.4 mM EDTA, 0.001% NP-40, 30 C; settings: tags: His6 N-terminal (pET28a); label: 5' 32P
In short: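 Purified wild-type or mutant RbFox RRM at increasing concentrations was equilibrated with 1 nM of 5′-radiolabelled RNA carrying 7 randomized nucleotides for 10 min in 50 µL. Unbound RNA was separated by 8% native PAGE and sequenced. Relative association constants came from read-count changes of each RNA species compared with the control reaction, normalised to the cognate motif.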

Q: How did the binding signal turn out when B1 was run?
A: 0.0582 KA relative to UGCAUGU

Q: How did the binding signal turn out when B2 was run?
A: 0.00124 KA relative to UGCAUGU

Q: B3 was tested. Which binding signal did it give?
A: 0.00151 KA relative to UGCAUGU

Q: With B4 as the binder, how does the binding signal read?
A: 0.016 KA relative to UGCAUGU

Q: B5 was tested. Which binding signal did it give?
A: 0.0101 KA relative to UGCAUGU

Q: Which binding signal does the source give for B6 here?
A: 0.0119 KA relative to UGCAUGU

Q: How did the binding signal turn out when B7 was run?
A: 0.00602 KA relative to UGCAUGU

Q: Which binding signal does the source give for B8 here?
A: 0.00649 KA relative to UGCAUGU

Q: With B9 as the binder, how does the binding signal read?
A: 0.0335 KA relative to UGCAUGU
